Several values for one entry are separate records, joined by “and”; a condition that tells them apart may be missing. Equal values may be shown once. In all, about 220,000 compounds went through this assay and about 5,700 (2.6%) were called active. The shares of active, inactive and inconclusive entries below differ from those in the screen. The call rests on the fitted dose curve; in most records, active means well fitted inhibition curve with a large enough effect; inconclusive means small, poorly fitted or top-dose-only effect; inactive means no such curve, though single readings can be large or run the other way. Where the call is inconclusive, the potency comes from a doubtful curve fit.
What follows are compounds tested against Lysine-specific demethylase 5B (Homo sapiens) (UniProt Q9UGL1) (assay: Primary screen for KDM5B Histone Demethylases FDH-coupled qHTS). Settings: FDH-coupled NADH fluorescence (FDH is formaldehyde dehydrogenase); activity change, negative = inhibition: at 57.7 µM (top of the series) unless noted.
Chain of UniProt Q9UGL1 (Q9UGL1 whole entry, looked up): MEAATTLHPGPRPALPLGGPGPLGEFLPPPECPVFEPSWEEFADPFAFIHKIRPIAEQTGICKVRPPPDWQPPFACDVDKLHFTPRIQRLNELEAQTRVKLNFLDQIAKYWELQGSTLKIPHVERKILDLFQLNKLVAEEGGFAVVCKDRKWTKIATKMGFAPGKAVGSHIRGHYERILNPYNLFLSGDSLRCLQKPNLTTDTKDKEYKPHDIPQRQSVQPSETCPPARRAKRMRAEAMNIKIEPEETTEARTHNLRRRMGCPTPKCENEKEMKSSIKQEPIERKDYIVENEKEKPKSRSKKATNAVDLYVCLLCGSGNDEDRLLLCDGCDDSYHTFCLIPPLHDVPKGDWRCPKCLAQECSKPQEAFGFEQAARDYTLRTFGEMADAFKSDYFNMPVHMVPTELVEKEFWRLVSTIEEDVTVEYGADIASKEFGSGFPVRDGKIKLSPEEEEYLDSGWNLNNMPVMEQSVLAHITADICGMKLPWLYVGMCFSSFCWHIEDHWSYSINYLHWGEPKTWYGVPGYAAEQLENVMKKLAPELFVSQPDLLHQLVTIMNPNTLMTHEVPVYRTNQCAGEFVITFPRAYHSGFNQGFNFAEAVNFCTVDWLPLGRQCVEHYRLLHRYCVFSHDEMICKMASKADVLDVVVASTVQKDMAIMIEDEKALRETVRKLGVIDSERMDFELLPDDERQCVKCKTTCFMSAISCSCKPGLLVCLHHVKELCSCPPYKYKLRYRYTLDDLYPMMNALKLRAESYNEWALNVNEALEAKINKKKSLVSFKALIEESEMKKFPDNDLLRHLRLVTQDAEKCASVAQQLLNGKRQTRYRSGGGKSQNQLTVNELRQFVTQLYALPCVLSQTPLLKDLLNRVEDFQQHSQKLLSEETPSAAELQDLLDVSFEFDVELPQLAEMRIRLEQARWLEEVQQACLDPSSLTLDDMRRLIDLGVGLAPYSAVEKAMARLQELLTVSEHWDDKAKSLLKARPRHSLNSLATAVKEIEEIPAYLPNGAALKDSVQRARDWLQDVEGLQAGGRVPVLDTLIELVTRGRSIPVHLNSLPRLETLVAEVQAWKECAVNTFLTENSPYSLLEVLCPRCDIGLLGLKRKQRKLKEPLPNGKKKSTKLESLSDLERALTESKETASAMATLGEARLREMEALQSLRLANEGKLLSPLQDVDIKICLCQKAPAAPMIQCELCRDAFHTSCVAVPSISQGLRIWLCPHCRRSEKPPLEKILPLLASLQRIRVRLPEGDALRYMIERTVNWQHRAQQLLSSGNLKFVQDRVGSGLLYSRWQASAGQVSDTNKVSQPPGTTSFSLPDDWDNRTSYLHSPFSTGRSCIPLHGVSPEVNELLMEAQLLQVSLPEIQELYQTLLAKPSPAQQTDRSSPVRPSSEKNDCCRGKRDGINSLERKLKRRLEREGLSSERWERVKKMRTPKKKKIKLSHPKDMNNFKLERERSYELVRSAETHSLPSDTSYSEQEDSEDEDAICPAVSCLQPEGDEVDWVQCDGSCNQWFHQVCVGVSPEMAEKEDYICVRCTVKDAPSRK
In short: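 Coupled FDH/NAD⁺ fluorescence readout. KDM5BΔAP 200 nM final; compound titration, 10 min RT preincubation; substrate mix 12.5 µM H3K4me3, 25 µM 2-OG, 50 µM Fe(II), 100 µM ascorbate, 0.25 mM NAD⁺, 0.25 U/mL FDH; ΔRFU over 30 min.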
COc1ccc(NC(=O)CSc2nnc3ccccn23)cc1S(=O)(=O)N1CCCCC1 was tested, and the Potency was inconclusive: 28.2 µM [inhibitor, partial curve, poor fit]. CCCCC(=O)NC(c1ccccc1OC)c1ccc2cccnc2c1O (stereo not drawn) was tested, and the Potency was inconclusive: 10 µM [inhibitor, partial curve, poor fit]. In the case of Cc1noc(-c2ccccc2Cl)c1C(=O)NCCCCc1ccccc1, the “activity change, negative = inhibition” value was inactive: -6.2%. With Cc1ccc(-c2cc3c(SCC(=O)N4CCN(c5ccc(F)cc5)CC4)nccn3n2)cc1 the “activity change, negative = inhibition” value was inactive: 15%. Cc1ccc(-n2ncc3c(Nc4cccc(Cl)c4)ncnc32)c(C)c1 was tested, and the Potency was inconclusive: 35.5 µM [inhibitor, partial curve, poor fit]. O=C(NCc1ccnc2[nH]ccc12)c1ccccc1 was tested, and the “activity change, negative = inhibition” value was inactive: -7.47% [at 86.2 µM]. With Cc1nc2scc(CC(=O)N3CCCC3)n2c(=O)c1-c1cc(C)n(-c2cccc(F)c2)n1 the Potency was inconclusive: 25.1 µM [inhibitor, partial curve, poor fit]. With CC1=C[C@@H](CNC(=O)CCC(=O)O)[C@H](C(C)C)C[C@H]1CC(=O)N1CCN(c2ccccn2)CC1 the Potency was inconclusive: 31.6 µM [inhibitor, partial curve, poor fit]. With FC(F)(F)C1(C(F)(F)F)C2C=CC(C2)N1c1nccs1 (stereo not drawn) the “activity change, negative = inhibition” value was inactive: 23.8%. In the case of COCCN1Cc2ccc(Nc3cccnc3)nc2C(C)(C(=O)NCc2ccncc2)C1 (stereo not drawn), the Potency was active: 25.1 µM. For CCN1CCN(CCNC(=O)c2ccc(-c3nc(CS(=O)(=O)c4ccccc4)c(C)o3)cc2)CC1, the Potency was inconclusive: 28.2 µM [inhibitor, partial curve, poor fit]. COc1ccc(CNC(=O)CCc2c(C)nc3c(c(C)nn3-c3ccccc3)c2C)cc1 was tested, and the Potency was inconclusive: 31.6 µM [inhibitor, partial curve, poor fit]. With CCOC(=O)c1c(C)n(-c2ccc(OC)cc2)c2ccc(OC(=O)COc3ccccc3)cc12 the Potency was inconclusive: 25.1 µM [inhibitor, partial curve, poor fit]. With Cn1ccnc1C(NC(=O)Nc1ccc(F)cc1)c1ccccc1F (stereo not drawn) the “activity change, negative = inhibition” value was inactive: -14.6%. In the case of COC(=O)C(=O)C1=C(C)OC(N)=C(C#N)C1c1ccccc1 (stereo not drawn), the Potency was inconclusive: 25.1 µM [inhibitor, single point]. In the case of NC(=O)c1oc2ccccc2c1NC(=O)C(=O)O, the Potency was inconclusive: 17.8 µM [inhibitor, partial curve, poor fit]. For O=C(O)CCCNC(=O)Cn1ccc2c(Br)cccc21, the “activity change, negative = inhibition” value was inactive: -1.84%. For Fc1ccccc1-c1nc(N2CCN(c3cccc(Cl)c3)CC2)c2ccccc2n1, the Potency was inconclusive: 31.6 µM [inhibitor, partial curve, poor fit]. COc1ccc(OCC2(C)COc3ccc(C(=O)NCC4CCOCC4)cc3N2)cc1 (stereo not drawn) was tested, and the Potency was active: 31.6 µM. For N#Cc1c(N)c(C(=O)c2ccc3c(c2)OCCO3)n2c1CCC2, the “activity change, negative = inhibition” value was inactive: 14.9%. For O=C(c1ccc2nc(-c3ccc(F)cc3)cn2c1)N1CCSCC1, the Potency was inconclusive: 35.5 µM [inhibitor, partial curve, poor fit]. In the case of Cc1ccc(C2CC(=O)Nc3cc4c(cc32)OCCO4)cc1Br (stereo not drawn), the activity change, negative = inhibition was inconclusive: -34.7% [inhibitor]. In the case of Cc1ccc2oc(=O)cc(CN3CCN(C/C=C/c4ccccc4)CC3)c2c1, the Potency was inconclusive: 28.2 µM [inhibitor, single point]. O=C(Nc1ccccc1NS(=O)(=O)c1cccs1)c1ccc(Cl)cc1[N+](=O)[O-] was tested, and the Potency was inconclusive: 3.98 µM [inhibitor, full curve, poor fit]. For COc1ccc(CN2CCc3oc(C)c(C(=O)NCc4cccnc4)c3C2)cc1, the “activity change, negative = inhibition” value was inactive: -16.5%. With Cn1c(=O)[nH]c(=O)c2c1nc(SCC(N)=O)n2CCc1ccccc1 the “activity change, negative = inhibition” value was inactive: 6.67%. For Cc1nn(C)cc1S(=O)(=O)Nc1ccn(Cc2c(F)cccc2Cl)n1, the “activity change, negative = inhibition” value was inactive: 17.7%. CCN1C(=O)CN(C(=O)c2ccco2)CC12CCOCC2 was tested, and the “activity change, negative = inhibition” value was inactive: 7.63%. In the case of COc1ccccc1-c1cnc(NC(=O)c2cccnc2)c2c1CCO2, the Potency was inconclusive: 35.5 µM [inhibitor, partial curve]. In the case of O=S(=O)(NCc1ccc(Cn2cncn2)cc1)c1ccccc1F, the “activity change, negative = inhibition” value was inactive: 20.4%. For Cc1ccc(CNC(=O)Nc2cc(C(=O)NCc3cccc(F)c3)ccc2N2CCCC2)cc1, the Potency was inconclusive: 2.82 µM [inhibitor, partial curve, poor fit]. CCCCn1c(CNC(=O)C23CC4CC(CC(C4)C2)C3)nnc1SCC(=O)Nc1ccc(C)cc1 was tested, and the Potency was inconclusive: 1.78 µM [inhibitor, full curve, poor fit]. In the case of CCc1ccc(C(=O)NCCOC)o1, the “activity change, negative = inhibition” value was inactive: 3.38%. With COCCSc1nc2c([nH]c3ccccc32)c(=O)n1-c1ccc(OC)c(OC)c1 the Potency was inconclusive: 31.6 µM [inhibitor, partial curve, poor fit]. With O=C(COC(=O)c1ccc(N2CCCC2=O)cc1)c1ccc2c(c1)CCCC2 the “activity change, negative = inhibition” value was inactive: -3.25%. CC(C)(C)C1CCc2c(sc(NC(=O)C3c4ccccc4Oc4ccccc43)c2C(N)=O)C1 (stereo not drawn) was tested, and the Potency was inconclusive: 14.1 µM [inhibitor, partial curve, poor fit]. For CCc1nc2c(=O)n(CC(=O)NCc3ccc(SC)cc3)nc(C)c2s1, the “activity change, negative = inhibition” value was inactive: 13.8%. With CCn1cc(S(=O)(=O)c2cc(C)cc(C)c2)c(=O)c2cc(F)c(N3CCCCC3)cc21 the Potency was inconclusive: 44.7 µM [inhibitor, single point]. For COc1ccc(OC)c(CNC(=O)Nc2cn(CC(C)C)c(=O)c3ccccc23)c1, the Potency was inconclusive: 15.8 µM [inhibitor, partial curve, poor fit]. With CC(=O)N[C@@H]1Cc2ccccc2[C@H]1NC(=O)CCc1cc2n(n1)CCCNC2 the “activity change, negative = inhibition” value was inactive: -20.5%. In the case of CCc1ccc(CNC(=O)CCC2CCCN(S(=O)(=O)c3ccccc3C)C2)cc1 (stereo not drawn), the Potency was inconclusive: 22.4 µM [inhibitor, partial curve]. CC(C)c1cc(=O)oc2cc(OCC(=O)Nc3ccc(C(N)=O)cc3)ccc12 was tested, and the Potency was inconclusive: 22.4 µM [inhibitor, partial curve, poor fit]. In the case of CC(C)(C)Nc1ncnc2sc(-c3ccccc3)cc12, the Potency was inconclusive: 31.6 µM [inhibitor, partial curve, poor fit]. With Cc1ccc(CN(C(=O)COc2ccccc2Cl)c2ccccn2)o1 the Potency was inconclusive: 2.51 µM [inhibitor, partial curve, poor fit] and inconclusive: 20 µM [inhibitor, partial curve, poor fit]. CC1(COc2cccnc2)COc2ccc(C(=O)N3CC[S+](=O)([O-])CC3)cc2N1 (stereo not drawn) was tested, and the Potency was inconclusive: 31.6 µM [inhibitor, single point]. In the case of CCOc1cc(C2NC(=O)N(C)C(C)=C2C(=O)OC2CCCC2)cc(Br)c1O (stereo not drawn), the “activity change, negative = inhibition” value was inactive: 11.9%. COc1cc(NC(=O)C2CN(S(=O)(=O)C3CC3)CC23CCCCC3)cc(OC)c1 (stereo not drawn) was tested, and the “activity change, negative = inhibition” value was inactive: 5.35%. CN(C(=O)CC(=O)Nc1ccc2nc3n(c(=O)c2c1)CCCCC3)c1ccccc1F was tested, and the Potency was inconclusive: 1.26 µM [inhibitor, partial curve, poor fit]. In the case of Cc1cccc(OCCc2noc(C3CCN(C(=O)NC(C)(C)C)C3)n2)c1 (stereo not drawn), the “activity change, negative = inhibition” value was inactive: -20.4%. For Cc1ccc2c(C(=O)N3CCN(c4ccccc4)CC3)cc(NC(=O)C(C)C)cc2n1, the Potency was inconclusive: 8.91 µM [inhibitor, partial curve]. In the case of CC(C)NC(=O)NCC12CCCC=C1NC(=O)CC2 (stereo not drawn), the Potency was inconclusive: 8.91 µM [inhibitor, partial curve]. With COc1ccc(-c2nc3cc(NC(=O)CC(C)C)ccc3o2)cc1OC the Potency was inconclusive: 1.78 µM [inhibitor, full curve, poor fit]. CCc1ccc(-n2nc(CO)c(C(=O)NCCOC)n2)cc1 was tested, and the Potency was inconclusive: 31.6 µM [inhibitor, partial curve, poor fit]. CCc1ccc(S(=O)(=O)NCc2ccc3c(c2)CCN3C(=O)c2ccc(C)cc2)cc1 was tested, and the Potency was inconclusive: 31.6 µM [inhibitor, single point]. With CC(C)CC(=O)NN=C1CCC(C(C)(C)C)CC1 (stereo not drawn) the “activity change, negative = inhibition” value was inactive: -8.88%. In the case of CC1=C(C(=O)Nc2ccccc2C)C(c2cccs2)n2nc(SCc3ccccc3)nc2N1 (stereo not drawn), the Potency was inconclusive: 28.2 µM [inhibitor, single point]. Cc1cccc(Cn2cnc3c2c(=O)n(C)c(=O)n3C)c1 was tested, and the “activity change, negative = inhibition” value was inactive: 14.6%. With Cc1cc(C)c2c(-n3cccc3)nn(CC(=O)Nc3cc(Cl)ccc3C)c2n1 the “activity change, negative = inhibition” value was inactive: -20%. In the case of CCCNC(=O)CSc1ncc(-c2ccccc2)o1, the “activity change, negative = inhibition” value was inactive: 7.18%. For CCn1cc(C(CC(=O)N2CCC(C)CC2)c2cccc(Cl)c2)c2ccccc21 (stereo not drawn), the Potency was inconclusive: 25.1 µM [inhibitor, single point]. For N#Cc1ccc(NCCNc2cccc3ccccc23)nc1, the Potency was inconclusive: 25.1 µM [inhibitor, partial curve, poor fit]. With O=C(NCc1ccco1)c1ccc(Cn2c(SCc3ccccc3)nc3cccnc32)cc1 the Potency was inconclusive: 28.2 µM [inhibitor, partial curve, poor fit]. For COc1ccc2cc(C(=O)N3CCN(S(=O)(=O)c4cc(C)ccc4C)CC3)c(C)nc2c1, the Potency was inconclusive: 39.8 µM [inhibitor, single point]. With COc1ccc(NC(=O)c2cc3c(N(C)Cc4ccccc4)nc(C)cn3n2)cc1 the Potency was active: 31.6 µM. With CC(O)CNc1nc2c(c(=O)n(C)c(=O)n2C)n1Cc1ccc(Cl)c(Cl)c1 (stereo not drawn) the “activity change, negative = inhibition” value was inactive: -11.2%. For CCN(Cc1ccco1)C(=O)c1cc2cc(Br)ccc2[nH]1, the “activity change, negative = inhibition” value was inactive: -7.74%. For CC(=O)c1ccc(OCC(=O)Nc2ccc3oc(C)nc3c2)cc1, the “activity change, negative = inhibition” value was inactive: -22.5%. CCc1noc(-c2ccn3c(CNC(=O)c4ccc(F)cc4)nnc3c2)n1 was tested, and the Potency was active: 12.6 µM.
Further: nearly all actives have a fitted effect of over 70% in size.
Potency means the concentration at half of the fitted maximal effect; tags describe the fitted curve by direction and shape.
Wherever activity change, negative = inhibition is given: 0% is about no effect.
